Values come from read counts of a selection and are noisy.
Tested on: NB7
Test: fold depletion of shRNA, plasmid library share / infected cells without Dox share (9 days) (ratio); higher = more depleted after infection (more toxic, leaky expression from a Tet-inducible vector; NB7 is a neuroblastoma line without caspase-8)
Settings: shRNA pool: CD95L ORF + CD95L 3'UTR + Venus libraries
Protocol: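 Pooled lethality screen in NB7 neuroblastoma cells infected with Dox-inducible pTIP shRNA libraries. The libraries tile every 21-mer of the Venus, CD95L or CD95 ORF / 3'UTR; each hairpin is the 21-nt sense sequence + CTCGAG loop + antisense. Cells were cultured 9 days with or without 100 ng/ml Dox. shRNA representation was measured by deep sequencing of the genomic inserts, normalised to the total reads per subpool and averaged over technical replicates. Fold depletion is the plasmid library share / infected cells without Dox share (mean of 2 biological replicates), and the -Dox/+Dox share ratio is the mean of 4 replicate pairings; higher values mean more depletion (toxicity).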
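Also: shRNA barcodes quantified by deep sequencing of PCR amplicons from cellular DNA, counts expressed as percent of each subpool, ratio averaged over two biological duplicates.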

| Sequence | fold depletion of shRNA |
| --- | --- |
| AGACTAGAGGCTTGCATAATA | 1.06 |
| CAAGTTCAGCGTGTCCGGCGA | 0.862 |
| GTGTGTGTATGACTAAAGAGA | 1.5 |
| CTAACAGATAAGCAAGAGAGA | 0.749 |
| CTGCACCACCGGCAAGCTGCC | 0.562 |
| TATGGAATTGTCCTGCTTTCT | 1.07 |
| ACTTCAAGGAGGACGGCAACA | 1.36 |
| CTTCCGGGGTCAATCTTGCAA | 0.738 |
| GACGGCCCCGTGCTGCTGCCC | 0.698 |
| TGAAGAGGGAGAAGCATGAAA | 0.659 |
| ACTCTAAGTATCCCCAGGATC | 6.05 |
| GGGCATCGACTTCAAGGAGGA | 1.61 |
| ATCTTCACTTCTAAATGCATA | 0.958 |
| ACCTCCGCCGCCGCCGCCACC | 0.309 |
| AGTTCTTCCCTGTCCAACCTC | 67 |
| CCTAACACAGCATGTGTATTT | 1.12 |
| GTTCACCGGGGTGGTGCCCAT | 1.65 |
| AGGGTTCAAAATGTCTGTAGC | 2.54 |
| GCCCGACAACCACTACCTGAG | 1.21 |
| ATGATTCTTTGTTACAGGCAC | 4.56 |
| TCAAGGACGACGGCAACTACA | 1.11 |
| GTGTATGACTAAAGAGAGAAT | 0.44 |
| TACCAGTGCTGATCATTTATA | 0.612 |
| AGAACTCTGGGCTGCCATGTG | 4.77 |
| TAAATATTTATGTAGATGTGC | 1.15 |
| GGGGTCAATCTTGCAACAACC | 0.852 |
| TCCTGCTTTCTGGAGTGAAGT | 1.75 |

| Sequence | fold depletion of shRNA |
| --- | --- |
| AATTTTGAGGAATCTCAGACG | 1.2 |
| CCGGGGTGGTGCCCATCCTGG | 1.05 |
| CCCATCGGCGACGGCCCCGTG | 0.501 |
| GTTTCAGCTCTTCCACCTACA | 3.21 |
| TTACCAGTGCTGATCATTTAT | 0.68 |
| CACCTCTCAAGGTGGGCCTTG | 0.921 |
| AAGGAGGACGGCAACATCCTG | 1.8 |
| TCTACCAGCCAGATGCACACA | 0.976 |
| CTACCTCAAGGGGGACTGTCT | 0.639 |
| AGATACATGGTTGTGACCTGA | 3.22 |
| CGTGCTGCTGCCCGACAACCA | 0.754 |
| CCGGCAAGCTGCCCGTGCCCT | 1.47 |
| GTATATTCCAAAGTATACTTC | 0.384 |
| CCGGGGTCAATCTTGCAACAA | 3.21 |
| CTGAAGCTGATCTGCACCACC | 0.791 |
| TCTTCAAGTCCGCCATGCCCG | 0.457 |
| TGATGAGCTACTGCACTACTG | 1.63 |
| CTCACCTAATGTTTATGAGCC | 0.499 |
| CTAATAGTGCTTAAAAATCAT | 0.75 |
| TTCACTTCTAAATGCATATCC | 0.682 |
| CATGGTCCTGCTGGAGTTCGT | 0.745 |
| AAGACACCTATGGAATTGTCC | 1.41 |
| GATACATGGTTGTGACCTGAG | 1.77 |
| GCGATCACATGGTCCTGCTGG | 1.2 |
| TACAAGACCCGCGCCGAGGTG | 1.46 |
| TGTGTGTGTGTGTATGACTAA | 1.63 |
| TGGCCCACCCTCGTGACCACC | 0.755 |

Same assay, conditions: shRNA pool: CD95 ORF + CD95 3'UTR + Venus libraries

| Sequence | fold depletion of shRNA |
| --- | --- |
| CAAGTTCAGCGTGTCCGGCGA | 1.06 |
| ATGTTCAATAATGTCCCATGT | 0.906 |
| TAAACTTTGTTTATAACTCTG | 0.93 |
| ACATGCAGAAAGCACAGAAAG | 1.59 |
| CTGCACCACCGGCAAGCTGCC | 1.03 |
| TCATATTATACAATATTTCAA | 1.12 |
| ACACCAAGTGCAAAGAGGAAG | 1.08 |
| TAAATATCTTTGAAAGTTTGT | 0.97 |
| ACTTCAAGGAGGACGGCAACA | 1.46 |
| TAAACCAAACTTTTTTTGTAA | 1.45 |
| GACGGCCCCGTGCTGCTGCCC | 0.706 |
| AAGAAGGGAAGGAGTACACAG | 0.655 |
| AAATAATATTTATATTTCTGT | 0.913 |
| CTCCAACTTTAAATCCTGAAA | 0.687 |
| GACATCAACTCCAAGGGATTG | 2.28 |
| CCAAAAGTGTTAATGCCCAAG | 1.13 |
| GGGCATCGACTTCAAGGAGGA | 1.22 |
| AGACTGCCCTTAGAAATTCTA | 2.04 |
| TTGCACAGTTTATTGGTGTCA | 2.22 |
| GTTCACCGGGGTGGTGCCCAT | 1.22 |
| ATCGTCCAAAAGTGTTAATGC | 2.97 |
| GAAAGAAGCGTATGACACATT | 2.22 |
| GCACAGTTTATTGGTGTCATA | 1.83 |
| ATTGTGAATTCACATAGAAAA | 0.816 |
| TCCAAGGATGTTTAAAATCTA | 0.522 |
| GCCCGACAACCACTACCTGAG | 0.934 |
| CTGCGTGCCCTGCCAAGAAGG | 1.07 |

| Sequence | fold depletion of shRNA |
| --- | --- |
| ATTGTTTGGGTGAAGAGAAAG | 0.874 |
| TCAAGGACGACGGCAACTACA | 1.21 |
| AGATCTCAAAAAAGCCAATCT | 2.44 |
| CCTCTGATAATTCTAGAGATT | 1.15 |
| AAATGCAGAAGATGTAGATTG | 0.976 |
| CATCAAGGAATGCACACTCAC | 4.59 |
| GAATTTTAAGAAATAATATTT | 1.33 |
| TATGTTAGTACAAATGTCTAT | 1.16 |
| TCTACCTCAAAGACCTTTGCA | 14.5 |
| CCTCCTACCTCTGGTTCTTAC | 5.24 |
| AGCTTATACATAGCAATGGTA | 1.27 |
| TCATTTATTAGCGCTGAAGAG | 0.842 |
| AAAAAAGCCAATCTTTGTACT | 1.02 |
| TCCCCCACCCCCGAAAATGTT | 3.49 |
| ATTTCTGTAAATGTAAACTGT | 0.987 |
| GAGTAAATATATCACCACTAT | 0.729 |
| GAGAAAATTCAGACTATCATC | 1.73 |
| CTGTTACTACAGTTGAGACTC | 0.685 |
| ATATTTATGTAAAGTATATGT | 0.762 |
| CCGGGGTGGTGCCCATCCTGG | 1.79 |
| TATATCACCACTATTGCTGGA | 1.61 |
| TAATATCTCATGATTCTGCCT | 3.56 |
| TTTTGCTGAAATATCAGTTAC | 0.667 |
| TTTGGAATTATAAAATATAGG | 0.596 |
| CTACTTCTTTCTCAGGCATCA | 2.36 |
| CCCATCGGCGACGGCCCCGTG | 0.588 |
| TTCAATAATGTCCCATGTAAA | 0.643 |

| Sequence | fold depletion of shRNA |
| --- | --- |
| ATGCTAAGTACCCAAATAGGA | 1.33 |
| AAGGAGGACGGCAACATCCTG | 1.24 |
| AGGATGAAAGATTAAGATTAT | 1.57 |
| CCTGCTACAAATGGCAGCTTA | 5.47 |
| TAATGTTTGACTATTATATAT | 0.729 |
| CGTGCTGCTGCCCGACAACCA | 1.57 |
| AAACTACCTACTTCTTTCTCA | 0.982 |
| CCGGCAAGCTGCCCGTGCCCT | 0.802 |
| CTGAAGCTGATCTGCACCACC | 1.04 |
| TGCTTGGTTTTTTACTGGGTA | 1.56 |
| AGGCCTGCATCATGATGGCCA | 1.84 |
| TCTTCAAGTCCGCCATGCCCG | 0.798 |
| GCCCAAGTGACTGACATCAAC | 1.52 |
| AACCAAGGTTCTCATGAATCT | 1.22 |
| CATGGTCCTGCTGGAGTTCGT | 0.817 |
| CAAGTTTCTAAGATTTAAGAT | 0.918 |
| GCGATCACATGGTCCTGCTGG | 1.46 |
| GTATTACTAGAGCTTTGCCAC | 2.68 |
| CAAAAAAGCCAATCTTTGTAC | 1.02 |
| TACAAGACCCGCGCCGAGGTG | 1.7 |
| TGTCATACCCCCAAGTTTCTA | 1.49 |
| TTAGAAATTCTAGCCTGGTTT | 2.03 |
| AACACTGTGACCCTTGCACCA | 2.54 |
| AAAGATGATAAAATAGATTCT | 0.953 |
| TGGCCCACCCTCGTGACCACC | 0.596 |

From the supplement of paper PMC5655136
